Test results as given in paper PMC4336329 (PLoS ONE, 2015).
Screen size: about 310,000 compounds; about 14,000 (4.5%) showed an effect of 50% or more. The effect is printed as a negative number. The list shows a part of the results.

biological target: human ether-à-go-go-related gene (hERG) potassium channel (human, UniProt Q12809); experiment: primary screen, population patch clamp on CHO cells stably expressing hERG
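Also: peak tail current of the secondary pulse compared with the same well before compound.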

human ether-à-go-go-related gene (hERG) potassium channel, sequence (Q12809 whole entry, looked up): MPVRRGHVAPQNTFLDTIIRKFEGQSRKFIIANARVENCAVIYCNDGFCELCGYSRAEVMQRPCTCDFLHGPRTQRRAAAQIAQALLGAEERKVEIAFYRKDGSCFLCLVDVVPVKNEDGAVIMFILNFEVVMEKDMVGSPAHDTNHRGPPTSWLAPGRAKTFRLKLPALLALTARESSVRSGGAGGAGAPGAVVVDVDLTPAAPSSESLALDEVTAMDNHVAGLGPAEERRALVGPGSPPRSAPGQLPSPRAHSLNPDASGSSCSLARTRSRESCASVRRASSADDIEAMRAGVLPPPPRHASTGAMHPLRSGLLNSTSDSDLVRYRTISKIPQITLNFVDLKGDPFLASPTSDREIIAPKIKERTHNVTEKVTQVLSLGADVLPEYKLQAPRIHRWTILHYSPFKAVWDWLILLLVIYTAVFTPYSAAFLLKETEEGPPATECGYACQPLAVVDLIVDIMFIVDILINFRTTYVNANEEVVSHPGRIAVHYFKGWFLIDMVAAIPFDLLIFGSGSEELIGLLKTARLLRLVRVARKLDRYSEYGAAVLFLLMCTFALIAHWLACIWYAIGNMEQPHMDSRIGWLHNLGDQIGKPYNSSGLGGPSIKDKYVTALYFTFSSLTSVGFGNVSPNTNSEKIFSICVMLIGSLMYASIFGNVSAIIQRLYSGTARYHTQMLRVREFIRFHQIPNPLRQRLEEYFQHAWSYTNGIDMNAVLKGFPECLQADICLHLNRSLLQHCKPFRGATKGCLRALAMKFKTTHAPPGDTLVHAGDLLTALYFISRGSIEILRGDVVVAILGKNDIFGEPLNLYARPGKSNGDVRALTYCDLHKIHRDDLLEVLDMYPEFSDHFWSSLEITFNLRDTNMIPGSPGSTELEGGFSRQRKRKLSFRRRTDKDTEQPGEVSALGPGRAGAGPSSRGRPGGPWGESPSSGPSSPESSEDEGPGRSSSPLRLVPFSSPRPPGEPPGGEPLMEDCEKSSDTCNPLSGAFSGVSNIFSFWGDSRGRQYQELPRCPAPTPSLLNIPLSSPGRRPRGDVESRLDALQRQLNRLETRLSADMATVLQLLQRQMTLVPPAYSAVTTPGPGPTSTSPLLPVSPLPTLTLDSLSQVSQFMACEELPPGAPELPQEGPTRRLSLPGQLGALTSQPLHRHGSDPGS

Compound | hERG current change (%, negative = inhibition) at 10uM [%]
O=C(COc1ccc(Br)cc1)NCCNC(=O)c1ccccn1 | -22.5
CC1CCN(c2ncnc3c2cnn3Cc2ccc(Cl)cc2)CC1 | -11.8
CN1C(=O)CN=C(c2ccc(Cl)cc2)c2cc(Cl)ccc21 | -33.8
NC(=O)c1ccc(NC(=O)CN2C(=O)NC(c3ccccc3)(c3ccccc3)C2=O)cc1 | 3.45
CCCC(=O)C1=C(O)C(C(=O)OC)C(C)(C)CC1=Nc1ccc(Br)cc1 (stereo not drawn) | 3.52
CC1C(=O)CCN(C(C)C)C1C.Cl (stereo not drawn) | 8.54
O=C(COC(=O)Cc1ccccc1F)Nc1ccc(SC(F)F)cc1 | -5.59
Cc1cccc(OCc2ccc(C(=O)Nc3cc(C)on3)o2)c1 | 18.7
COC(=O)C1=C(c2ccccc2)C[C@@H]2CC[C@H]1N2C | 24
Nc1nc2c(c(=O)[nH]1)CN(Cc1ccccc1)CC2 | 7.8
CC(=O)n1cc([C@@H]2C=C(C(=O)N3CCN(Cc4ccc5c(c4)OCO5)CC3)O[C@H](OCCCCO)C2)c2ccccc21 | -50.2
CCOc1ccc(CN2CCCC(CO)(Cc3ccc(F)cc3)C2)cc1 (stereo not drawn) | -62
CCCCCCc1cc2cc(C(=O)Nc3cccc(OC)c3)c(=O)oc2cc1O | 25
O=C(Nc1ccccc1-c1ccccc1)c1ccccc1Br | 6.82
COCCN(C(=S)Nc1ccccc1C)C(C)c1cccnc1 (stereo not drawn) | -13.4
CCOc1ccc2nc(NCCNC(=O)CC)c(C#N)cc2c1 | -12
O=C(COc1ccccc1Cl)NC(=O)NC1CCCCC1 | 5.11
CCN(CC)C(=O)c1c(C)nc2ccccn12 | 11.2
COc1ccccc1NC(=O)NCC(c1ccco1)N1CCCCC1 (stereo not drawn) | 14.8
Nc1nnc(SCCN2C(=O)c3ccccc3C2=O)s1 | -10.7
CCCCCCCc1c(O)nc(SCCN(C)C)[nH]c1=O.Cl | -5.87
Cl.O=C(OCCN1CCOCC1)C1(c2ccccc2)CCCCC1 | -12.1

Compound | hERG current change (%, negative = inhibition) at 10uM [%]
COc1nc(OCCNS(=O)(=O)c2ccc(C)cc2)nc(N(C)C)n1 | 2.52
Clc1ccc(N/N=C/c2cccs2)nn1 | 7.59
CCOc1cc(C(=O)Nc2cc(C(=O)OC)ccc2C)ccc1OCC(=O)N1CCOCC1 | -7.66
Cn1c(=O)oc2cc(S(=O)(=O)CCC(=O)N3CCN(c4ccccc4F)CC3)ccc21 | 1.03
COc1nc(NCc2ccco2)nc(N2CCC(C)CC2)n1 | -7.48
O=C(CSc1nnc(-c2ccccc2)n1Cc1ccco1)NCc1ccc2c(c1)OCO2 | -14.5
COCCn1c(=S)[nH]c2cc(C(=O)N(CCO)Cc3ccccc3)ccc2c1=O | 4.32
Cc1oc(CC(C)C)cc1C(=O)Nc1ccc(C(=O)O)cc1 | 4.88
CCn1cc(C(=O)NCc2ccc(C)o2)c2cc(OC)c(OC)cc2c1=O | 6.1
COC(=O)Nc1sc2c(c1C(=O)NCc1ccco1)CCCC2 | -8.12
CCS(=O)(=O)c1ncc(Cl)c(C(=O)Nc2ccc(S(=O)(=O)N3CCC(C)CC3)cc2)n1 | 14.9
COc1ccc(-c2nc(CS(=O)CC(=O)NC3CCCCC3C)c(C)o2)cc1OC (stereo not drawn) | 20.1
CCCCC1=CC2=C(c3ccco3)C(=O)C(C)(OC(=O)c3ccc(OC)cc3)C(=O)C2=CN1CC1CC1 (stereo not drawn) | 17.4
CC(/C=C1\SC(=O)N(CC(=O)Nc2ccc(O)cc2)C1=O)=C\c1ccccc1 | -2.14
COc1ccc(Cl)cc1S(=O)(=O)N1CCCC(C(=O)NCCc2ccccc2)C1 (stereo not drawn) | -1.76
CCOC(=O)c1c(NC(=O)c2c(C(=O)O)cccc2[N+](=O)[O-])sc2c1CCCC2 | 13.2
Cc1cc(C)n(C(=O)c2cccc([N+](=O)[O-])c2)n1 | -5.46
O=C(CC(Nc1ccccc1Cl)C(=O)OCC(=O)c1cccs1)c1ccccc1 (stereo not drawn) | 3.93
CCCCC(CC)C(=O)NCc1ccccc1OC (stereo not drawn) | -25.3
CCc1nnc(NC(=O)c2cc([N+](=O)[O-])ccc2N2CCOCC2)s1 | -15
COc1cc(NC(=O)[C@@H]2CCCN(S(=O)(=O)c3cccc4cccnc34)C2)cc(OC)c1OC | -3.26
CCOC(=O)Cn1c(=N)n(CCOc2ccc(OC)cc2)c2ccccc21.Cl | -56.4

Compound | hERG current change (%, negative = inhibition) at 10uM [%]
COc1cc(OC)cc(C(=O)NC2CCN(Cc3nnnn3Cc3cccs3)CC2)c1 | -49.7
C=CCn1c(N)cc(=O)nc1SCC(=O)Nc1ccc2ccccc2c1 | 9.79
COc1ccc(CN2CCCCC2C(=O)Nc2ccc(OC)c(OC)c2)cc1OC (stereo not drawn) | -32.7
O=S(Cc1ccccc1)CC(O)(c1ccc(Cl)cc1)c1ccc(Cl)cc1 (stereo not drawn) | -10.2
COC(=O)c1ccccc1S(=O)(=O)N1CCC(C(=O)NCCC2=CCCCC2)CC1 | -26.8
O=c1c2c(nc3nc[nH]n13)CCC2 | -5.27
Cc1cc(=O)[nH]c(Cc2ccc(OC(C)C)cc2)n1 | 6.94
Fc1cccc(-c2cc3nc4c(c(N5CCC6(CC5)OCCO6)n3n2)CCCC4)c1 | -2.48
COc1ccc([N+](=O)[O-])cc1NC(=O)c1ccc(CN(c2ccccc2)S(C)(=O)=O)cc1 | 0.0353
Cn1nccc1C(=O)OCC(=O)Nc1cccc(Cl)c1 | -8.23
Cc1cccc(OCC(=O)N2CCN(Cc3ccncc3)CC2)c1.O=C(O)C(=O)O | 8.94
COc1ccc2c(c1)[C@@H]1[C@H](CO2)[C@H](c2ccccc2)[C@]2(C)C(=O)Nc3ccc(C)cc3C(=O)N12 | -19.3
COc1ccccc1OCC(=O)N1CCCC(N(C)Cc2ccccc2)C1 (stereo not drawn) | -45.3
CCc1nnc(NS(=O)(=O)c2ccc(NC(=O)c3cccc(Br)c3)cc2)s1 | 13.7
COc1ccc(N(CC(=O)Nc2ccccc2C(=O)NCc2ccco2)S(C)(=O)=O)cc1 | -14.6
CCc1ccc(NC(=O)CSCc2ccc(C(=O)O)cc2)cc1 | -5.93
O=C(NCC1CCCO1)c1ccccc1-c1nc(-c2ccc(Cl)cc2)no1 (stereo not drawn) | -28.3
O=C(CNC(=O)c1ccc(Br)cc1)c1ccc(Br)cc1 | 21.9
CCN(CCNC(=O)CN1CCN(Cc2ccc(Cl)cc2)C1=O)c1ccccc1 | -52
CC1CCCN(CC(=O)N2CCCc3ccccc32)C1.[O-][Cl+3]([O-])([O-])O (stereo not drawn) | -4.32
COCCN(CC1CCCN(C2Cc3ccccc3C2)C1)C(=O)c1cccs1 (stereo not drawn) | -68.5
CCN(C(=O)CSc1nc2ccccc2c(=O)n1-c1ccc(C)cc1)C1CCS(=O)(=O)C1 (stereo not drawn) | -11.6

Compound | hERG current change (%, negative = inhibition) at 10uM [%]
CN(C)c1nc(N(C)C)nc(N(C#N)CCOc2ccccc2)n1 | -4.58
Cc1cccc(C(=O)NC(C)C(=O)NC(c2nc3ccccc3[nH]2)C(C)C)c1 (stereo not drawn) | -7.29
CCn1c(C)cc(/C=C2/SC(=O)N(CC(=O)N3CCCC3)C2=O)c1C | -14.8
COc1ccc(C(=O)NC2CC2)cc1OC1CCN(Cc2ccc(Cl)cc2)CC1 | -78.8
Cc1cc(C)nc(NNC(=O)NC2CCCCC2)n1 | 2.31
CCCCCCC(C)OC(=O)c1ccccc1C(=O)O (stereo not drawn) | 16
COc1cc(/C=C2\SC(=S)N(CCC(=O)Nc3cccc(O)c3)C2=O)cc(OC)c1OC | 16.3
O=P(O)(Oc1ccccc1)OC(c1ccccc1)C(F)(F)F (stereo not drawn) | 22.2
COc1ccccc1/C=C/C(=O)OCC(=O)NNC(=O)c1ccccc1 | -1.5
O=C(CSCc1ccc(Cl)cc1Cl)Nc1c[nH]c(=O)[nH]c1=O | 5.48
O=C(Cn1c(=O)oc2ccccc21)NCC1COc2ccccc2O1 (stereo not drawn) | 16.6
CC(C(=O)Nc1ccc2c(c1)OCCO2)n1nnc(-c2ccccc2)n1 (stereo not drawn) | 10.7
CCn1cc(C(=O)N2CCCCC2)c(=O)c2cc(S(=O)(=O)N3CCC(C)CC3)ccc21 | -18.4
Cc1cccc(N(C(=O)Cn2nnc3ccccc32)C(C(=O)NC(C)(C)C)c2ccsc2)c1C (stereo not drawn) | 19.7
CCn1cc(S(=O)(=O)NCCc2ccc(F)cc2)cn1 | -8.3
O=C(CNS(=O)(=O)c1cccs1)N1CCCC1 | 14.9
O=C(NN1C(=O)c2ccccc2NC1c1cccnc1)c1ccccc1 (stereo not drawn) | 12.5
CCN(c1ccccc1)S(=O)(=O)c1ccc(Cl)c(C(=O)N2CCCC2)c1 | 5.04
Cc1ccc(Cl)cc1NC(=O)c1ccccc1OCC(=O)Nc1ccc(Cl)cc1 | -23.3
CCC(=O)c1ccc(OCC(O)Cn2nc(C)c(C(C)=O)c2C)cc1 (stereo not drawn) | -36.7
CCOc1ccc(CCNC(=O)c2cccc(S(=O)(=O)N3CCOCC3)c2)cc1OCC | -6.89
